T1: recombinant human VEGF165 (human, UniProt P15692-4 27-191)
T1 sequence (looked up): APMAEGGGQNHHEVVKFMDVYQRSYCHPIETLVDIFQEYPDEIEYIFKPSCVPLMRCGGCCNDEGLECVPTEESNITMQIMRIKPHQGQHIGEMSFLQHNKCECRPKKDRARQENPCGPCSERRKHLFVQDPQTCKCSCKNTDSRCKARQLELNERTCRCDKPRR

T2: PlGF (UniProt P49763-2 21-149, limits assumed)
T2 construct: bought antigen coated on the ELISA plate; also called Placental GF
T2 sequence (looked up): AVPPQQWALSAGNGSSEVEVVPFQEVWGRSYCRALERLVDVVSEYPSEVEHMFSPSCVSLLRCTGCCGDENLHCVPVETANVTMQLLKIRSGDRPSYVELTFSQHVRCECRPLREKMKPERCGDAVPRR

T3: VEGF (UniProt P15692 27-191, limits assumed)
T3 construct: bought antigen coated on the ELISA plate
T3 sequence (looked up): T1 sequence (looked up)

B1: DVD049 (bispecific antibody, human IgG1, kappa)
heavy: EVQLVESGGGLVQPGGSLRLSCAASGYTFTNYGMNWVRQAPGKGLEWVGWINTYTGEPTYAADFKRRFTFSLDTSKSTAYLQMNSLRAEDTAVYYCAKYPHYYGSSHWYFDVWGQGTLVTVSSASTKGPEVQLVESGGGLVQPGGSLRLSCAASGFSFSSEPISWVRQAPGKGLEWVSSITGKNGYTYYADSVKGRFTISADTSKNTAYLQMNSLRAEDTAVYYCARWGKKVYGMDVWGQGTLVTVSS[omitted - human IgG1 constant region]
light: DIQMTQSPSSLSASVGDRVTITCSASQDISNYLNWYQQKPGKAPKVLIYFTSSLHSGVPSRFSGSGSGTDFTLTISSLQPEDFATYYCQQYSTVPWTFGQGTKVEIKRTVAAPDIQMTQSPSSLSASVGDRVTITCRASQSISSYLAWYQQKPGKAPKLLIYGASSRASGVPSRFSGSGSGTDFTLTISSLQPEDFATYYCQQYMSVPITFGQGTKVEIKRTVAAPSVFIFPPSDEQLKSGTASVVCLLNNFYPREAKVQWKVDNALQSGNSQESVTEQDSKDSTYSLSSTLTLSKADYEKHKVYACEVTHQGLSSPVTKSFNRGEC
B2: DVD044 (bispecific antibody, human IgG1, kappa)
heavy: EVQLVESGGGLVQPGGSLRLSCAASGFTFTDNWISWVRQAPGKGLEWVGYISPNSGFTYYADSVKGRFTISADTSKNTAYLQMNSLRAEDTAVYYCARDNFGGYFDYWGQGTLVTVSSASTKGPEVQLVESGGGLVQPGGSLRLSCAASGYTFTNYGMNWVRQAPGKGLEWVGWINTYTGEPTYAADFKRRFTFSLDTSKSTAYLQMNSLRAEDTAVYYCAKYPHYYGSSHWYFDVWGQGTLVTVSS[omitted - human IgG1 constant region]
light: DIQMTQSPSSLSASVGDRVTITCRASQDVSTAVAWYQQKPGKAPKLLIYSASFLYSGVPSRFSGSGSGTDFTLTISSLQPEDFATTYYCQQSYTGTVTFGQGTKVEIKRTVAAPDIQMTQSPSSLSASVGDRVTITCSASQDISNYLNWYQQKPGKAPKVLIYFTSSLHSGVPSRFSGSGSGTDFTLTISSLQPEDFATYYCQQYSTVPWTFGQGTKVEIKRTVAAPSVFIFPPSDEQLKSGTASVVCLLNNFYPREAKVQWKVDNALQSGNSQESVTEQDSKDSTYSLSSTLTLSKADYEKHKVYACEVTHQGLSSPVTKSFNRGEC
B3: DVD400 (bispecific antibody, human IgG1, kappa)
heavy: [omitted - about 120 residues]ASTKGPSVFPLAPEVQLVESGGGLVQPGGSLRLSCAASGFTFSIYSMNWVRQAPGKGLEWVSYISSSSSTIYYADSVKGRFTISRDNAKNSLYLQMNSLRDEDTAVYYCARDRGDFDAFDIWGQGTMVTVSS[omitted - human IgG1 constant region]
light: [omitted - about 100 residues]RTVAAPSVFIFPPDIQMTQSPSSLSASVGDRVTITCQASQDITNYLNWYQQKPGKAPKLLIYDASNLETGVPSRFSGSGSGTDFTFTISSLQPEDIATYNCQQCENFPITFGQGTRLEIKRTVAAPSVFIFPPSDEQLKSGTASVVCLLNNFYPREAKVQWKVDNALQSGNSQESVTEQDSKDSTYSLSSTLTLSKADYEKHKVYACEVTHQGLSSPVTKSFNRGEC
notes: DVD-Ig; HC linker long, LC linker long; also called DVD400H; DVD400L
B4: DVD404 (bispecific antibody, human IgG1, kappa)
heavy: [omitted - about 120 residues]ASTKGPSVFPLAPEVQLVESGGGLVQPGGSLRLSCAASGFTFSIYSMNWVRQAPGKGLEWVSYISSSSSTIYYADSVKGRFTISRDNAKNSLYLQMNSLRDEDTAVYYCARDRGDFDAFDIWGQGTMVTVSS[omitted - human IgG1 constant region]
light: [omitted - about 100 residues]RTVAAPDIQMTQSPSSLSASVGDRVTITCQASQDITNYLNWYQQKPGKAPKLLIYDASNLETGVPSRFSGSGSGTDFTFTISSLQPEDIATYNCQQCENFPITFGQGTRLEIKRTVAAPSVFIFPPSDEQLKSGTASVVCLLNNFYPREAKVQWKVDNALQSGNSQESVTEQDSKDSTYSLSSTLTLSKADYEKHKVYACEVTHQGLSSPVTKSFNRGEC
notes: DVD-Ig; HC linker long, LC linker short; also called DVD404H; DVD404L
B5: DVD408 (bispecific antibody, human IgG1, kappa)
heavy: [omitted - about 120 residues]ASTKGPEVQLVESGGGLVQPGGSLRLSCAASGFTFSIYSMNWVRQAPGKGLEWVSYISSSSSTIYYADSVKGRFTISRDNAKNSLYLQMNSLRDEDTAVYYCARDRGDFDAFDIWGQGTMVTVSS[omitted - human IgG1 constant region]
light: [omitted - about 100 residues]RTVAAPSVFIFPPDIQMTQSPSSLSASVGDRVTITCQASQDITNYLNWYQQKPGKAPKLLIYDASNLETGVPSRFSGSGSGTDFTFTISSLQPEDIATYNCQQCENFPITFGQGTRLEIKRTVAAPSVFIFPPSDEQLKSGTASVVCLLNNFYPREAKVQWKVDNALQSGNSQESVTEQDSKDSTYSLSSTLTLSKADYEKHKVYACEVTHQGLSSPVTKSFNRGEC
notes: DVD-Ig; HC linker short, LC linker long; also called DVD408H; DVD408L
B6: DVD686 (bispecific antibody, human IgG1, kappa)
heavy: [omitted - about 120 residues]ASTKGPEVQLVESGGGLVQPGGSLRLSCAASGFTFSIYSMNWVRQAPGKGLEWVSYISSSSSTIYYADSVKGRFTISRDNAKNSLYLQMNSLRDEDTAVYYCARDRGDFDAFDIWGQGTMVTVSS[omitted - human IgG1 constant region]
light: [omitted - about 100 residues]RTVAAPDIQMTQSPSSLSASVGDRVTITCQASQDITNYLNWYQQKPGKAPKLLIYDASNLETGVPSRFSGSGSGTDFTFTISSLQPEDIATYNCQQCENFPITFGQGTRLEIKRTVAAPSVFIFPPSDEQLKSGTASVVCLLNNFYPREAKVQWKVDNALQSGNSQESVTEQDSKDSTYSLSSTLTLSKADYEKHKVYACEVTHQGLSSPVTKSFNRGEC
notes: DVD-Ig; HC linker short, LC linker short; also called DVD686H; DVD686L
B7: DVD557 (bispecific antibody, human IgG1, kappa)
heavy: QVQLKQSGPGLVQPSQSLSITCTVSGFSLTTYGIHWVRQSPGKGLEWLGVMWSGGDTDYDAAFISRLSISKDNSKSQVFFKMNSLQANDTGIYYCARYRFYGMDYWGQGTSVTVSSASTKGPSVFPLAPEVQLVESGGGLVQPGGSLRLSCAASGYTFTNYGMNWVRQAPGKGLEWVGWINTYTGEPTYAADFKRRFTFSLDTSKSTAYLQMNSLRAEDTAVYYCAKYPHYYGSSHWYFDVWGQGTLVTVSS[omitted - human IgG1 constant region]
light: AIQMTQSSSSFSVSLGDRVTITCKASEDIYNRFAWYQQKPGNAPRLLISGAASLEAGVPSRFSGSGSGQDYTLSITSLQTEDVATYYCQQYWSTPWTFGGGTKLEIKRTVAAPDIQMTQSPSSLSASVGDRVTITCSASQDISNYLNWYQQKPGKAPKVLIYFTSSLHSGVPSRFSGSGSGTDFTLTISSLQPEDFATYYCQQYSTVPWTFGQGTKVEIKRTVAAPSVFIFPPSDEQLKSGTASVVCLLNNFYPREAKVQWKVDNALQSGNSQESVTEQDSKDSTYSLSSTLTLSKADYEKHKVYACEVTHQGLSSPVTKSFNRGEC
notes: HC linker long, LC linker short; also called DVD-Ig DVD557
B8: DVD565 (bispecific antibody, human IgG1, kappa)
heavy: QVQLKQSGPGLVQPSQSLSITCTVSGFSLTTYGIHWVRQSPGKGLEWLGVMWSGGDTDYDAAFISRLSISKDNSKSQVFFKMNSLQANDTGIYYCARYRFYGMDYWGQGTSVTVSSASTKGPEVQLVESGGGLVQPGGSLRLSCAASGYTFTNYGMNWVRQAPGKGLEWVGWINTYTGEPTYAADFKRRFTFSLDTSKSTAYLQMNSLRAEDTAVYYCAKYPHYYGSSHWYFDVWGQGTLVTVSS[omitted - human IgG1 constant region]
light: AIQMTQSSSSFSVSLGDRVTITCKASEDIYNRFAWYQQKPGNAPRLLISGAASLEAGVPSRFSGSGSGQDYTLSITSLQTEDVATYYCQQYWSTPWTFGGGTKLEIKRTVAAPSVFIFPPDIQMTQSPSSLSASVGDRVTITCSASQDISNYLNWYQQKPGKAPKVLIYFTSSLHSGVPSRFSGSGSGTDFTLTISSLQPEDFATYYCQQYSTVPWTFGQGTKVEIKRTVAAPSVFIFPPSDEQLKSGTASVVCLLNNFYPREAKVQWKVDNALQSGNSQESVTEQDSKDSTYSLSSTLTLSKADYEKHKVYACEVTHQGLSSPVTKSFNRGEC
notes: HC linker short, LC linker long; also called DVD-Ig DVD565
B9: DVD579 (bispecific antibody, human IgG1, kappa)
heavy: QVQLQQSGAELVKPGASVKISCKASGYTFTDYYINWVKLAPGQGLEWIGWIYPGSGNTKYNEKFKGKATLTIDTSSSTAYMQLSSLTSEDTAVYFCVRDSPFFDYWGQGTLLTVSSASTKGPSVFPLAPEVQLVESGGGLVQPGGSLRLSCAASGYTFTNYGMNWVRQAPGKGLEWVGWINTYTGEPTYAADFKRRFTFSLDTSKSTAYLQMNSLRAEDTAVYYCAKYPHYYGSSHWYFDVWGQGTLVTVSS[omitted - human IgG1 constant region]
light: DIVLTQSPDSLAVSLGERVTMNCKSSQSLLNSGMRKSFLAWYQQKPGQSPKLLIYWASTRESGVPDRFTGSGSGTDFTLTISSVQAEDVAVYYCKQSYHLFTFGSGTKLEIKRTVAAPSVFIFPPDIQMTQSPSSLSASVGDRVTITCSASQDISNYLNWYQQKPGKAPKVLIYFTSSLHSGVPSRFSGSGSGTDFTLTISSLQPEDFATYYCQQYSTVPWTFGQGTKVEIKRTVAAPSVFIFPPSDEQLKSGTASVVCLLNNFYPREAKVQWKVDNALQSGNSQESVTEQDSKDSTYSLSSTLTLSKADYEKHKVYACEVTHQGLSSPVTKSFNRGEC
notes: HC linker long, LC linker long; also called DVD-Ig DVD579
B10: DVD587 (bispecific antibody, human IgG1, kappa)
heavy: B9 heavy
light: DIVLTQSPDSLAVSLGERVTMNCKSSQSLLNSGMRKSFLAWYQQKPGQSPKLLIYWASTRESGVPDRFTGSGSGTDFTLTISSVQAEDVAVYYCKQSYHLFTFGSGTKLEIKRTVAAPDIQMTQSPSSLSASVGDRVTITCSASQDISNYLNWYQQKPGKAPKVLIYFTSSLHSGVPSRFSGSGSGTDFTLTISSLQPEDFATYYCQQYSTVPWTFGQGTKVEIKRTVAAPSVFIFPPSDEQLKSGTASVVCLLNNFYPREAKVQWKVDNALQSGNSQESVTEQDSKDSTYSLSSTLTLSKADYEKHKVYACEVTHQGLSSPVTKSFNRGEC
notes: HC linker long, LC linker short; also called DVD-Ig DVD587

Tests used:
[1] = target: T1, recombinant human VEGF165; assay: cell-based or functional assay
[2] = target: human DLL4 extracellular domain (human, UniProt Q9NR61 partial chain); assay: cell-based or functional assay
[3] = target: T4, ErbB3 (ErbB3 ECD/FC Chimera-His tag, R&D 348-RB-050) (UniProt P21860 partial chain, limits assumed); assay: direct bind ELISA, coated antigen; C-terminal VD of DVD-Ig
T4 construct: extracellular domain; Bought antigen coated on the ELISA plate

PlGF = target: T2, PlGF; assay: direct bind ELISA, N-terminal VD
VEGF = target: T3, VEGF; assay: direct bind ELISA, C-terminal VD

| Binder | EC50 [3] | EC50 (PlGF) | EC50 (VEGF) | other results |
| --- | --- | --- | --- | --- |
| B1 | – | – | – | % inhibition of HUVEC proliferation at 0.67 nM [1]: 43%; % inhibition of HUVEC proliferation at 6.7 nM [1]: 86%; % inhibition of HUVEC proliferation at 67 nM [1]: 108% |
| B2 | – | – | – | Soluble Flt1 Assay, % of Neutralization @ 9.2 nM Ab [2]: 39.8%; Soluble Flt1 Assay, % of Neutralization @ 27.7 nM Ab [2]: 76.2%; Soluble Flt1 Assay, % of Neutralization @ 83.3 nM Ab [2]: 79.9% |
| B3 | 7.74 nM | – | – | – |
| B4 | 4.34 nM | – | – | – |
| B5 | 4.37 nM | – | – | – |
| B6 | 97.4 nM | – | – | – |
| B7 | – | 0.17 nM | 25 nM | – |
| B8 | – | 3.24 nM | 498 nM | – |
| B9 | – | 1.18 nM | 47.9 nM | – |
| B10 | – | 0.13 nM | 12.7 nM | – |

Reference: US20100260668A1 (published 2010)
